Experimental findings from patent KR20220059888A (dated 2022) are described below.

To fix the notation:
T1: 마우스 Tie2 단백질 (마우스 (mouse), UniProt Q02858 23-1122)
T1 construct: whole, on cells; also called 다른 종 유래의 Tie2 단백질
T1 sequence (looked up): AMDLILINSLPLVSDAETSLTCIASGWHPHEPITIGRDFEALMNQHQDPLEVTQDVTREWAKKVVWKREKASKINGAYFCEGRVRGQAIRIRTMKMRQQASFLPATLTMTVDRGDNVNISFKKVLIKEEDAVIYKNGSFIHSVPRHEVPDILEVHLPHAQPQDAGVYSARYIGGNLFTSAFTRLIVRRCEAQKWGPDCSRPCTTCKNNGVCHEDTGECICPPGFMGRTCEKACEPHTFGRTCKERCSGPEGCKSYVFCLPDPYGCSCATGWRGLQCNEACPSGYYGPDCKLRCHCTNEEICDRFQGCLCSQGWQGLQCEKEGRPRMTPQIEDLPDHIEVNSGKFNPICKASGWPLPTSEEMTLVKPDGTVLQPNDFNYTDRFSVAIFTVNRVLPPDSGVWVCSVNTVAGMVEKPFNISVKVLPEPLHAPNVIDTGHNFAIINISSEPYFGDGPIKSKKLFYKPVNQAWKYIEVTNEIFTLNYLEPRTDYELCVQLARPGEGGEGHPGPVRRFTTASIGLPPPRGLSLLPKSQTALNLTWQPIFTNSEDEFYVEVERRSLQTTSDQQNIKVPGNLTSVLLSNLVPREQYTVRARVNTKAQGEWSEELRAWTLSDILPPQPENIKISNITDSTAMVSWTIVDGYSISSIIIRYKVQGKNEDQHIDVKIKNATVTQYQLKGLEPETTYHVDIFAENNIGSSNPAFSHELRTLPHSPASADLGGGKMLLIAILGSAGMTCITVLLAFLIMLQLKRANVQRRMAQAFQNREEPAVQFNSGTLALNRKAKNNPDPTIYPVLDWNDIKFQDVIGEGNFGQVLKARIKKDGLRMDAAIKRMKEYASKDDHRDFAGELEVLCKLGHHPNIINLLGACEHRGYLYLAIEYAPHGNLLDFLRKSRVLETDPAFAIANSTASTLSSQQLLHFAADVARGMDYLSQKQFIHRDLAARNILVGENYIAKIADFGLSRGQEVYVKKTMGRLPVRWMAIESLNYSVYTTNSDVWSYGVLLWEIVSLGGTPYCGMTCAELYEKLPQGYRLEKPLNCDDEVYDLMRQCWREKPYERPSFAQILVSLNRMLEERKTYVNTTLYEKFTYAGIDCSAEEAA

T2: 랫 Tie2 단백질 (랫 (rat), UniProt A0ABK0L6J5 19-1116)
T2 construct: whole, on cells; also called 다른 종 유래의 Tie2 단백질
T2 sequence: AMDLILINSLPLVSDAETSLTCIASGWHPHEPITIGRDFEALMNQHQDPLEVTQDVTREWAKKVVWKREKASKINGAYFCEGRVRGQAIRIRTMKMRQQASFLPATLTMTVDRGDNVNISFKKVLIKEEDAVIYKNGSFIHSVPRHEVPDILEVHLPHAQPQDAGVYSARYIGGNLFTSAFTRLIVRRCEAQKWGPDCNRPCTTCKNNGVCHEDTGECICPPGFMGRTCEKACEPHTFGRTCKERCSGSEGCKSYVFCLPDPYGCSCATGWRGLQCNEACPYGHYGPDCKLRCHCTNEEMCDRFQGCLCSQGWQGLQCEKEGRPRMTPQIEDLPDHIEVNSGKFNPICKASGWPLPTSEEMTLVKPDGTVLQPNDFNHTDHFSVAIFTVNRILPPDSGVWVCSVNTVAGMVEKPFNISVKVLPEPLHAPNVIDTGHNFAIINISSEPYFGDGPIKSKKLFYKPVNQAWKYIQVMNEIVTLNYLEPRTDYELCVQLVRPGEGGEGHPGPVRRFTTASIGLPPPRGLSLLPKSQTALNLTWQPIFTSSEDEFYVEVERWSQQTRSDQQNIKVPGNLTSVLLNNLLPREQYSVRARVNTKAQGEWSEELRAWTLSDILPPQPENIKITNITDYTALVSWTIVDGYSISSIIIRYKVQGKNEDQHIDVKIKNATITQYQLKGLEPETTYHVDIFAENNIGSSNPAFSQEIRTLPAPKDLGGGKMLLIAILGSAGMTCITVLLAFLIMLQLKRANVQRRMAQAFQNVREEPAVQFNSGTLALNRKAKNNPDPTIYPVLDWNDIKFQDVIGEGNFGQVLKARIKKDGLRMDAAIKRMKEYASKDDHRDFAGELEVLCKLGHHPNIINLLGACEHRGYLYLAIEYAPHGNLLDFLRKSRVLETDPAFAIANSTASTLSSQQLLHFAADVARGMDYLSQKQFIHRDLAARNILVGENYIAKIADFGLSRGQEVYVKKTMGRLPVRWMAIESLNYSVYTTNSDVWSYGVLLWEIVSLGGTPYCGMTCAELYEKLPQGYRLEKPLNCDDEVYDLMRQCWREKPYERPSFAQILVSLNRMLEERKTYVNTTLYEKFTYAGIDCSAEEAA

T3: 개 Tie2 단백질 (개 (dog), UniProt A0A8I3S0B4 27-1128)
T3 construct: whole, on cells; also called 다른 종 유래의 Tie2 단백질
T3 sequence: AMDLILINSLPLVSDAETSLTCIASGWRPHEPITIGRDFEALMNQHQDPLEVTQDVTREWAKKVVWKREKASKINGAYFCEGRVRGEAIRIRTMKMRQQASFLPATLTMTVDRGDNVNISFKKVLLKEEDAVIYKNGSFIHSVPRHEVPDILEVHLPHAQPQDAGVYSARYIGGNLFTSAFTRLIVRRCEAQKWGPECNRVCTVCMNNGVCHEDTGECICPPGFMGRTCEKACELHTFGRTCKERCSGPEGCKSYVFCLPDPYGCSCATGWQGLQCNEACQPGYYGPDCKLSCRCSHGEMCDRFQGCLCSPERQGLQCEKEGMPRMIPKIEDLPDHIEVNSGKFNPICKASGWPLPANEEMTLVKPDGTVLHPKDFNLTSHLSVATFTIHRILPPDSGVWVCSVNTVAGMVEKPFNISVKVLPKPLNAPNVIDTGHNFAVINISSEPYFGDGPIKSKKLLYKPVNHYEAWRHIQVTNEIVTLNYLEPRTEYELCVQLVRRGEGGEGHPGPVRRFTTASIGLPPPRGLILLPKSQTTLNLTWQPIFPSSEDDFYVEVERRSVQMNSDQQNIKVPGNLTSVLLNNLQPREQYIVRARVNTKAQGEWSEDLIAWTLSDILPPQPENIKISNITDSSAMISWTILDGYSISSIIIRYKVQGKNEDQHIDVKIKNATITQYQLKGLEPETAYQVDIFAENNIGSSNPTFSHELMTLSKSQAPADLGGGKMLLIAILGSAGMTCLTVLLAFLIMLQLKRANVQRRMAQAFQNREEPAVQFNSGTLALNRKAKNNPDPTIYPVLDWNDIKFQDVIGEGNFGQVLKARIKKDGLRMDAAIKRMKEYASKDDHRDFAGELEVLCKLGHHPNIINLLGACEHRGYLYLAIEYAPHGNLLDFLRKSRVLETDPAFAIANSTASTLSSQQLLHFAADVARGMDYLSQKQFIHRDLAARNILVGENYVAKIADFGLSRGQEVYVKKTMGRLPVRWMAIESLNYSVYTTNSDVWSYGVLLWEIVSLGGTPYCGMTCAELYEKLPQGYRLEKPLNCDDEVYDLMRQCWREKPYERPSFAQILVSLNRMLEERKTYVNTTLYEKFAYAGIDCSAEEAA

B1: Ang1mab4 (antibody, human IgG4 S228P, kappa)
heavy: QVQLVQSGGGVVQPGRSLRLSCAASGLTFSNYAMHWVRQAPGKGLEWVAVISYDGENKYYADSVKGRFTISRDNSKNMLQLQMNRLRSEDTAVYYCATPKGGALEIWGQGTVITVSSASTKGPSVFPLAPCSRSTSESTAALGCLVKDYFPEPVTVSWNSGALTSGVHTFPAVLQSSGLYSLSSVVTVPSSSLGTKTYTCNVDHKPSNTKVDKRV[sequence of human IgG4 Fc with S228P (EU numbers) omitted]
light: DIQMTQSPDSLAVSLGERATINCKSSQSVLYSSNNKNYLAWYQQKPGQPPNLLMYWASTRESGVPDRFSGSGSGTDFTLTISSLQAEDVAVYYCQQYYSAPITFGQGTRLEIKRTVAAPSVFIFPPSDEQLKSGTASVVCLLNNFYPREAKVQWKVDNALQSGNSQESVTEQDSKDSTYSLSSTLTLSKADYEKHKVYACEVTHQGLSSPVTKSFNRGEC
notes: also called 제1 기본 항체; 기본 항체(Ang1mab4)
B2: Ang1mab4(L1S07A) (antibody, human IgG4 S228P, kappa)
heavy: B1 heavy
light: B1 light with S33A
notes: also called 변이 항체
B3: Ang1mab4(H1L02A) (antibody, human IgG4 S228P, kappa)
heavy: B1 heavy with L27A
light: B1 light
notes: also called 변이 항체
B4: Ang1mab4(H1V12A) (antibody, human IgG4 S228P, kappa)
heavy: B1 heavy with V37A
light: B1 light
notes: also called 변이 항체
B5: Ang1mab4(H1G01A) (antibody, human IgG4 S228P, kappa)
heavy: B1 heavy with G26A
light: B1 light
notes: frameworks and constant regions as in Ang1mab4; also called 변이 항체
B6: Ang1mab4(H1S05A) (antibody, human IgG4 S228P, kappa)
heavy: B1 heavy with S30A
light: B1 light
notes: also called 변이 항체
B7: Ang1mab4(L1Q01A) (antibody, human IgG4 S228P, kappa)
heavy: B1 heavy
light: B1 light with Q27A
notes: also called 변이 항체

Residue numbers refer to the chain shown, from its start.

The target in the first test is T1, 마우스 Tie2 단백질. Nature of the test: flow cytometry; HEK293T cells transfected with mouse Tie2.
B1: the binding result is “no binding (tested: 5-g/ml (so in the source))”.

As to B2, the binding result is on record as “no binding (tested: 5-g/ml (so in the source))”.

On to B3, for which the binding result is on record as “no binding (tested: 5-g/ml (so in the source))”.

With B4, the binding result was “no binding (tested: 5-g/ml (so in the source))”.

As for B5, the binding result was “no binding (tested: 5-g/ml (so in the source))”.

Consider B6, for which the binding result is on record as “no binding (tested: 5-g/ml (so in the source))”.

On to B7, for which the binding result is on record as “no binding (tested: 5-g/ml (so in the source))”.

The next test concerns the target T2, 랫 Tie2 단백질. Nature of the test: flow cytometry; HEK293T cells transfected with rat Tie2.
Regarding B1, the binding result is listed as “no binding (tested: 5-g/ml (so in the source))”.

In the case of B2, the binding result is on record as “no binding (tested: 5-g/ml (so in the source))”.

With B3, the binding result is “no binding (tested: 5-g/ml (so in the source))”.

On to B4, for which the binding result was “no binding (tested: 5-g/ml (so in the source))”.

Turning to B5, the binding result is recorded as “no binding (tested: 5-g/ml (so in the source))”.

B6: the binding result is recorded as “no binding (tested: 5-g/ml (so in the source))”.

In the case of B7, the binding result was “no binding (tested: 5-g/ml (so in the source))”.

For the next test, the target named is T3, 개 Tie2 단백질. The experiment in a line: flow cytometry; HEK293T cells transfected with dog Tie2.
With B1, the binding result is recorded as “no binding (tested: 5-g/ml (so in the source))”.

As for B2, the binding result was “no binding (tested: 5-g/ml (so in the source))”.

In the case of B3, the binding result is “no binding (tested: 5-g/ml (so in the source))”.

Take B4: the binding result is reported as “no binding (tested: 5-g/ml (so in the source))”.

Take B5: the binding result was “no binding (tested: 5-g/ml (so in the source))”.

Regarding B6, the binding result is on record as “no binding (tested: 5-g/ml (so in the source))”.

As to B7, the binding result is reported as “no binding (tested: 5-g/ml (so in the source))”.

For the next test, the target named is T4, 인간 Tie2-Fc 재조합 단백질 (인간 (human), UniProt Q02763 23-748, limits assumed).
T4 construct: Human Tie2-Fc recombinant protein, coated in ELISA and immobilised in BLI; also called 인간 Tie2-Fc 단백질; 항원; not shown: Fc part
The experiment in a line: BLI (Octet K2); human Tie2-Fc immobilised on AR2G tip; antibody 30-1.63 nM; global fit.
B1 returned a dissociation constant Kd of 0.529 nM, a koff of 4.6e-05 s⁻¹ and a kon of 87000 M⁻¹ s⁻¹.

Take B2: the Kd was determined as 0.682 nM, the koff was 7.54e-05 s⁻¹ and the kon came out at 111000 M⁻¹ s⁻¹.

For B3, the Kd came to 0.471 nM, the koff came out at 4.56e-05 s⁻¹ and the kon stood at 97100 M⁻¹ s⁻¹.

B4: the affinity, expressed as Kd, was 0.997 nM; the off-rate (koff) was 7.62e-05 s⁻¹; the association rate constant (kon) came out at 76700 M⁻¹ s⁻¹.

With B5, binding was characterised by a dissociation constant (Kd) of 0.761 nM, the dissociation rate constant (koff) was 7.12e-05 s⁻¹ and the kon was determined as 93800 M⁻¹ s⁻¹.

In turn, B6 had a dissociation constant (Kd) of 0.934 nM, a dissociation rate constant (koff) of 8.31e-05 s⁻¹ and a kon of 88900 M⁻¹ s⁻¹.

In the case of B7, the Kd was 1.36 nM, the koff was 0.000148 s⁻¹ and the on-rate constant (kon) was found to be 109000 M⁻¹ s⁻¹.
